{
  "source": "paper PMC9290910",
  "about": "“Neuropilin‐1 is required for endothelial cell adhesion to soluble vascular endothelial growth factor receptor 1” (The Febs Journal, 2021)",
  "binders": {"B1": {"name": "Recombinant human NRP‐1 (receptor)", "chain": "not shown", "notes": "Neuropilin-1, human, recombinant soluble protein; see the vendor's datasheet (as far as I recall an extracellular fragment with a C-terminal His tag); also called Neuropilin‐1; soluble NRP‐1; source: bought: R&D Systems (3870‐N1)"}},
  "molecular_target": "T1, Purified α5β1 integrin (UniProt P08648 42-1049; P05556)",
  "T1 construct": "integrin alpha-5 subunit; integrin beta-1 subunit; As far as I recall this product is purified from human tissue; also called integrin α5β1; source: bought: Merck Millipore (CC1052), purified, octyl‐β‐D‐glucopyranoside formulation",
  "assay": "SPR; BIACORE X, CM5; NRP-1 immobilised by amine coupling; analyte in HEPES-buffered saline (10 mM HEPES pH 7.4, 150 mM NaCl, 0.005% P20); global 1:1 Langmuir fit",
  "details": "both partners purified",
  "data": [
    {"binder": "B1", "values": [
      {"measurement": "Kd", "value": "14 ± 4", "unit": "nM"},
      {"measurement": "koff", "value": 0.00029, "unit": "s⁻¹"},
      {"measurement": "kon", "value": 21000, "unit": "M⁻¹ s⁻¹"}
    ]}
  ]
}
